From patent US5389645A, “Substituted tyrosyl diamine amide compounds” (G. D. Searle & Co., priority 1992, dated 1995)

Molecular target: μ opioid receptors (Rattus norvegicus, UniProt P33535)
Assay: Opiate Binding Assay, displacement of 3[H]-DAMPGO from μ opioid receptors (rat forebrain membranes)
Conditions: ratio of the mean IC50 values for the μ and δ opioid receptors; above 1.0 = more specific for δ; printed on both the μ and δ line

Chain of UniProt P33535 (P33535 whole entry): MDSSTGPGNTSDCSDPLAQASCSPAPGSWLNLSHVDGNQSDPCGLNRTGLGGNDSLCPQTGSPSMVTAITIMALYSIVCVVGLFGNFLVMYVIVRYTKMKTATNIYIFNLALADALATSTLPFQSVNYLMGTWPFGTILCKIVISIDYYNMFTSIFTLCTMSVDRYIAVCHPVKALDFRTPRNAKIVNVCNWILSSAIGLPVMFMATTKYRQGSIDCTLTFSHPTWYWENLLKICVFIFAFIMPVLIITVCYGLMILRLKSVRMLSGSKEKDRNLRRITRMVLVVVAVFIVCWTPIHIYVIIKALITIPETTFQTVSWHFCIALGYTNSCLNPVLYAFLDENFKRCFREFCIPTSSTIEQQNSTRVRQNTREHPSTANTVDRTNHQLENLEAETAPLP

Compound | Mean IC50 μ/δ Ratio
Cc1cc(O)cc(C)c1C[C@H](N)C(=O)NCC(C)(C)NC(=O)NCc1ccccc1 [Example 11, αS-amino-4-hydroxy-2,6-dimethyl-N-[2-methyl-2-[[[(phenylmethyl)amino]carbonyl]amino]propyl]benzenepropanamide, hydrochloride] | 1.8
Cc1cc(O)cc(C)c1C[C@H](N)C(=O)NC(C)(C)CNC(=O)c1ccc2ccccc2n1 [Example 6, N-[2-[[2S-amino-3-(4-hydroxy-2,6-dimethylphenyl)-1-oxopropyl]amino]-2-methylpropyl]-2-quinolinecarboxamide, hydrochloride] | 0.4
Cc1cc(O)cc(C)c1C[C@H](N)C(=O)NC(C)(C)CNC(=O)c1cnc2ccccc2c1 [Example 8, N-[2-[[2S-amino-3-(4-hydroxy-2,6-dimethylphenyl)-1-oxopropyl]amino]-2-methylpropyl]-3-quinolinecarboxamide, hydrochloride] | < 0.4
Cc1cc(O)cc(C)c1C[C@H](N)C(=O)NC(C)(C)CNC(=O)CCc1ccccc1 [Example 13, αS-amino-N-[1,1-dimethyl-2-[(1-oxo-3-phenylpropyl)amino]ethyl]-4-hydroxy-2,6-dimethylbenzenepropanamide, hydrochloride] | < 1.8
Cc1cc(O)cc(C)c1C[C@H](N)C(=O)NC(C)(C)CNC(=O)C#Cc1ccccc1 [Example 18, S-Amino-N-[1,1-dimethyl-2-[(1-oxo-3-phenyl-2-propynyl)amino]ethyl]-4-hydroxy-2,6-dimethylbenzenepropanamide, monohydrochloride] | < 1.1
Cc1cc(O)cc(C)c1C[C@H](N)C(=O)N1CCN(Cc2ccccc2)CC1 [Example 15, 1-[2S-Amino-3-(4-hydroxy-2,6-dimethylphenyl)-1-oxopropyl]-4-(phenylmethyl)piperazine, dihydrochloride] | 0.3
Cc1cc(O)cc(C)c1C[C@H](N)C(=O)NC(C)(C)CNC(=O)OCc1ccccc1 [Example 3, Phenylmethyl[2-[[2S-amino-3-(4-hydroxy-2,6-dimethylphenyl)-1-oxopropyl]amino]-2-methylpropyl]carbamate, monohydrochloride] | 6
Cc1cc(O)cc(C)c1C[C@H](N)C(=O)NCC(C)(C)NC(=O)CCc1ccccc1 [Example 14, αS-Amino-4-hydroxy-2,6-dimethyl-N-[2-methyl-2-[(1-oxo-3-phenylpropyl)amino]propyl]benzenepropanamide, hydrochloride] | 0.4
Cc1cc(O)cc(C)c1C[C@H](N)C(=O)NC(C)(C)CNC(=O)NCc1ccccc1 [Example 10, αS-amino-N-[1,1-dimethyl-2-[[[(phenylmethyl)amino]carbonyl]amino]ethyl]-4-hydroxy.2,6-dimethylbenzenepropanamide, hydrochloride] | < 0.43

Counter-ions that a name gives are not always drawn.
